Laboratory results: PubChem BioAssay AID686978 (National Center for Advancing Translational Sciences (NCATS), 2013)
Screen size: about 420,000 compounds; about 64,000 (15%) were called active. This list was built around the results that the source calls inconclusive (neither active nor inactive); the mix of calls is not that of the screen. Calls come from the whole dose curve; as a rule, active = well fitted inhibition curve with a large enough effect; inconclusive = small, poorly fitted or top-dose-only effect; inactive = flat fitted curve, though single readings scatter. Potencies of inconclusive entries are left out as doubtful fits.
% is set by controls: 0 for no effect and ±100 for the full control effect; potency is the fitted concentration of half-maximal effect; tags give direction and shape of the fitted curve.

Experiment: qHTS for Inhibitors of human tyrosyl-DNA phosphodiesterase 1 (TDP1): qHTS in cells in absence of CPT; note: nearly all actives have a fitted effect of over 55% in size
Conditions: DT40 Tdp1-/- hTDP1 cells, no CPT, ATP luminescence, 48 h; activity change, negative = growth inhibition: at 46.2 µM (top of the series) unless noted
Summary of the method: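 Compound effects on proliferation are scored in DT40 Tdp1-/-;hTDP1 cells in the absence of CPT. ATP levels (CellTiter-Glo luminescence) are recorded after a ≥48 hr, 37 °C incubation.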
With `CCCn1c2ccccc2c2cnn(CC(=O)NCCc3cc(OC)ccc3OC)c(=O)c21` the Potency was active: 16.4 µM. For `Cc1nc(-c2ccc(F)cc2)sc1CCNC(=O)C(=O)Nc1ccc2c(c1)OCO2`, the Potency was “inactive”. With `CCOc1ccccc1NC(=O)CCNC(=O)C1CCN(S(=O)(=O)c2ccccc2)CC1` the Potency was “inactive”. For `COc1ccc2oc(=O)c(-c3nc4ccccc4o3)cc2c1`, the Potency was inconclusive [inhibitor, single point]. With `Cc1ccc(CN2CCOc3ccc(CN4CCC(O)(c5cccnc5)CC4)cc3C2)cc1C` the Potency was active: 18.4 µM. For `CC(=O)NC1(C(F)(F)F)NC(=O)N(c2ccc(F)cc2)C1=O` (stereo unspecified), the Potency was “inactive”. In the case of `CCOC(=O)N1CCC(Nc2nc3ccccc3n3nnnc23)CC1`, the Potency is reported as inconclusive [inhibitor, single point]. With `COc1ccc(C(C)=O)cc1CN1C(=O)C(C)ON=C1c1cccc(C(F)(F)F)c1` (stereo unspecified) the Potency was active: 16.4 µM. In the case of `CCOc1ccc(NC(=S)Nc2cccc3ccccc23)cc1`, the Potency is reported as “inactive”. In the case of `CCCCCCCCCc1conc1C(=O)/C=C/c1oc2c(c1C)CCC(C)C2` (stereo unspecified), the Potency is reported as active: 14.6 µM. For `Cc1ccc(NC(=O)c2cc3cccc([N+](=O)[O-])c3[nH]2)cc1`, the Potency was inconclusive [inhibitor, single point]. For `COc1cc2nc(N(CCCN(C)C)C(=O)c3ccc(S(=O)(=O)N4CCc5ccccc5C4)cc3)sc2cc1OC`, the Potency was inconclusive [inhibitor, single point]. For `O=C(NNC(=O)c1cc(-c2ccc(Cl)cc2)nc2ccccc12)c1csc(N2CCOCC2)n1`, the Potency was inconclusive [inhibitor, single point]. For `COc1ccc(N2CCN(C(=O)c3nn(C)c4c3CSc3ccccc3-4)CC2)cc1`, the Potency was inconclusive [inhibitor, single point]. With `O=C(COC(=O)c1ccc(S(=O)(=O)N2CCCC2)cc1)NCc1ccc(Cl)cc1` the Potency was inconclusive [inhibitor, single point]. For `COc1ccccc1N1CCN(C(=O)C(C)NC(=O)c2cccc([N+](=O)[O-])c2)CC1` (stereo unspecified), the Potency was inconclusive [inhibitor, single point]. With `CCc1ccc2c(CC(=O)Nc3cccc(S(=O)(=O)N4CCOCC4)c3)coc2c1` the Potency was inconclusive [inhibitor, single point]. With `CCCc1cnc(Nc2nc(C(N)Cc3ccc(OC)cc3)cs2)nc1` (stereo unspecified) the Potency was inconclusive [inhibitor, single point]. For `O=C(Nc1ccc(-c2ccco2)cc1)C1CCCN(Cc2ccco2)C1` (stereo unspecified), the Potency was inconclusive [inhibitor, single point]. In the case of `CCC(C)COC(c1ccccc1)(c1ccccc1)C(Oc1nc(C)cc(C)n1)C(=O)O` (stereo unspecified), the Potency is reported as “inactive”. With `Cc1ccc(Cn2c(N/N=C/c3ccncc3)nc3c2c(=O)n(C)c(=O)n3C)cc1` the Potency was active: 18.4 µM. For `O=C1CCCN1CN(C(=O)c1ccc2c(c1)OCO2)c1ccc(F)cc1`, the Potency was inconclusive [inhibitor, single point]. In the case of `CC(=O)c1cccc(NC(=O)c2ccc(-c3ccccc3[N+](=O)[O-])o2)c1`, the Potency is reported as inconclusive [inhibitor, single point]. With `CCCCN(C(=O)CSc1nnc(-c2ccc(OC)cc2)n1CC)c1c(N)n(Cc2ccccc2)c(=O)[nH]c1=O` the Potency was “inactive”. For `O=C(Cn1nc(C(=O)O)c2ccccc2c1=O)NCC1CCCO1` (stereo unspecified), the Potency was “inactive”. In the case of `Cc1ccc(Cl)cc1NC(=O)Cn1cc(S(=O)(=O)Cc2ccccc2Cl)c2ccccc21`, the Potency is reported as inconclusive [inhibitor, single point]. In the case of `COc1cccc(/C=C/c2nccc3ccccc23)c1OC`, the Potency is reported as active: 15.8 µM. With `CCc1ccc(C(=O)c2cn(CC(=O)Nc3ccc(OC)c(Cl)c3)c3nc(C)ccc3c2=O)cc1` the Potency was inconclusive [inhibitor, single point]. For `CC(c1ccccc1)N(C)CC(=O)NC(=O)NCCC1=CCCCC1` (stereo unspecified), the Potency was inconclusive [inhibitor, single point]. With `CC(C)c1nc2cc(C(=O)NC(C)c3cnn(C)c3)ccc2o1` (stereo unspecified) the Potency was “inactive”. For `Cc1sc2nc(CSCC(=O)Nc3c(Cl)cccc3Cl)[nH]c(=O)c2c1C`, the Potency was active: 9.2 µM. For `O=C(CSC1=NS(=O)(=O)c2cc(F)ccc2N1)NCc1ccc(F)cc1`, the Potency was “inactive”. For `CCN(CC)N=Nc1cccc(NC(C)=O)c1`, the Potency was active: 3.26 µM. For `CC1=C(C(=O)Nc2cccc(C(F)(F)F)c2)C(c2ccccn2)n2ncnc2N1` (stereo unspecified), the Potency was “inactive”. For `Cc1ccn2cc(CCNC(=O)C3CC=CCC3C(=O)O)nc2c1` (stereo unspecified), the Potency was “inactive”. With `CCCN(C(=O)NCc1noc2ccc(C)cc12)c1ccc(Cl)c(Cl)c1` the Potency was inconclusive [inhibitor, single point]. For `OCC[C@@H]1C[C@H](O)[C@@H](O)[C@]2(CCCCO2)O1`, the Potency was “inactive”. In the case of `CC(c1ccc(F)cc1)n1c(-c2ccc3ccccc3n2)n[nH]c1=S` (stereo unspecified), the Potency is reported as “inactive”. For `O=C(Cn1c(SCCOc2ccccc2Cl)nc2ccccc21)N1CCCCC1`, the Potency was inconclusive [inhibitor, single point]. For `Cc1cc(C)cc(OCC(=O)NCC2(N3CCOCC3)CCCCC2)c1`, the Potency was active: 25.9 µM. For `CCOC(=O)c1ccc2nc3c(cc2c1)CCS3`, the Potency was inconclusive [inhibitor, partial curve]. In the case of `O=C(Nc1cccc(F)c1)N1CCC2(CC1)CCN(C(=O)c1ccco1)CC2`, the Potency is reported as inconclusive [inhibitor, single point]. With `N#Cc1c(SCC(=O)O)nc(N2CCOCC2)c2c1CCCC2` the Potency was “inactive”. With `COc1cccc(-c2nnc3n2N=C(c2cc(OC)ccc2OC)CS3)c1` the Potency was active: 14.6 µM. For `CC(C)(C)NC(=O)CCN(/N=C/c1ccccc1O)C1=NS(=O)(=O)c2ccccc21`, the Potency was active: 14.6 µM. In the case of `COc1cc(/C=C(\C#N)c2nc3ccccc3[nH]2)c([N+](=O)[O-])cc1OCc1ccccc1`, the Potency is reported as active: 18.4 µM. With `N#Cc1c(-c2ccc(Cl)cc2)ccn2nc(C3CCCCC3)nc12` the Potency was “inactive”. In the case of `CSc1ccccc1NC(=O)C1CC(c2ccccc2Cl)=NO1` (stereo unspecified), the activity change, negative = growth inhibition is reported as inconclusive: -30% [inhibitor]. With `COc1ccc(-n2c(=S)[nH]c3cc(C(=O)NCc4ccccc4OC)ccc3c2=O)c(OC)c1` the Potency was inconclusive [inhibitor, single point]. For `COc1ccc(Oc2ccc(C(F)(F)F)cc2N)cc1`, the Potency was inconclusive [inhibitor, single point]. In the case of `CCCCCCCCS(=O)c1sc2nc(C)cc(C)c2c1N` (stereo unspecified), the Potency is reported as inconclusive [inhibitor, partial curve]. For `O=C(OCc1cn([C@@H]2CN(Cc3cccs3)[C@@H](c3ccc(Cl)cc3)C[C@H]2O)nn1)c1ccccc1`, the Potency was inconclusive [inhibitor, partial curve]. For `O=C(CS(=O)(=O)c1ccccc1)c1ccc2c(c1)OCCO2`, the Potency was active: 18.4 µM. In the case of `Nc1nc(SCC(=O)Nc2cccnc2Cl)n[nH]1`, the Potency is reported as inconclusive [inhibitor, single point]. With `CC1CC(C)CN(CCOc2ccc(Cl)cc2Cl)C1` (stereo unspecified) the Potency was inconclusive [inhibitor, single point]. For `Cc1ccc(S(=O)(=O)N2CCN(C(=O)COC(=O)c3ccc(O)cc3)CC2)c(C)c1`, the Potency was inconclusive [inhibitor, single point]. In the case of `COc1ccc(OCc2cc(C(=O)N3CCCCCCC3)no2)c(Cl)c1`, the Potency is reported as inconclusive [inhibitor, single point]. In the case of `Cc1ccc(C)c(-n2ccnc2SCC(=O)c2c(N)n(C3CC3)c(=O)[nH]c2=O)c1`, the Potency is reported as inconclusive [inhibitor, single point]. With `Cc1c(S(=O)(=O)c2ccccn2)c(N)n(Cc2cccc(Cl)c2)c1C` the Potency was inconclusive [inhibitor, partial curve]. In the case of `CN(C)S(=O)(=O)c1cccc(NC(=O)CCCSc2ccccc2)c1`, the Potency is reported as inconclusive [inhibitor, single point]. With `OC(COc1ccc(Cl)cc1)CN1CCN(c2ccccn2)CC1` (stereo unspecified) the Potency was inconclusive [inhibitor, single point]. For `CN1CCN(CCCc2c3c(cc4c2CCC4)CCC3)CC1`, the Potency was inconclusive [inhibitor, single point]. In the case of `O=C(OCc1cn([C@@H]2CN(CC3CCCCC3)[C@@H](c3ccc(Cl)cc3)C[C@H]2O)nn1)c1ccccc1`, the Potency is reported as “inactive”. With `CC(C)c1onc(C(=O)Nc2cccnc2Cl)c1[N+](=O)[O-]` the Potency was inconclusive [inhibitor, single point]. For `COC(=O)C1CC2=C(CCCC2=O)N(c2ccccc2)C1=O` (stereo unspecified), the Potency was “inactive”. For `Cc1ccc(C)c(NC(=O)Cn2c(=O)n(Cc3ccco3)c(=O)c3ccc(C(=O)NC4CCCC4)cc32)c1`, the Potency was active: 16.4 µM. In the case of `CCn1c(-c2ccccc2F)nc2cc(NC(C)=O)cc(C(=O)N3CCC[C@H]3C(=O)OC)c21`, the Potency is reported as “inactive”. With `CCC(=O)O/N=C(\N)c1ccc(Oc2cc(C)c(Cl)c(C)c2)c([N+](=O)[O-])c1` the Potency was inconclusive [inhibitor, partial curve, poor fit]. For `CC1CN(CCNC(=O)C2CCCc3c2[nH]c2ccccc32)Cc2ccccc2O1` (stereo unspecified), the Potency was inconclusive [inhibitor, single point]. In the case of `N#Cc1ccccc1Cn1c(=O)n(-c2ccc(F)c(Cl)c2)c(=O)c2sccc21`, the activity change, negative = growth inhibition is reported as inconclusive: -38.4% [inhibitor]. For `O=C(c1cc(=O)c2ccccc2o1)N1CCN(c2cccc(Cl)c2)CC1`, the Potency was inconclusive [inhibitor, partial curve].
